Data: PubChem BioAssay (NCI)
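Test compounds were applied to cells in 96-well plates for 48 hours at 5 doses. GI50: concentration for 50% inhibition of growth. At the TGI there is no net growth.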

tested on: NCI-H322M lung; assay: DTP human tumour cell line panel, 48 h

SMILES	GI50 [µM]	TGI [µM]
NC(=Nc1ccc(OCCCCCCCCn2cnnn2)cc1)c1ccccc1	0.637	> 100
CN(C)c1nc(NCCNS(=O)(=O)c2ccc(C(=O)/C=C/c3ccc(C(F)(F)F)cc3)cc2)nc(N2CCOCC2)n1	14.2	27.2
O=c1[nH]c2ccccc2cc1CSc1ccc(Nc2nccc(-c3ccc(C(F)(F)F)cc3)n2)cc1	2.77	16.8
COc1ccc(CN2[C@@H](C(=O)NCc3ccc(C(=O)NO)cc3)Cc3c([nH]c4ccccc34)[C@@H]2C2CC2)cc1	4.25	> 19.8
Cn1cc(-c2nc(N)nnc2-c2c[nH]c3ccccc23)c2cc(Br)cnc21	0.121	16
